From the BET-seq Pho4 binding data (Le et al. 2018)
The list shows a part of the results. These are noisy estimates, calculated here from bound and input reads.

The sequences below were run against T1, Pho4 (S. cerevisiae) (UniProt P07270) (assay: relative binding free energy (BET-seq); higher = weaker binding). Details: reference: library average.
T1 sequence: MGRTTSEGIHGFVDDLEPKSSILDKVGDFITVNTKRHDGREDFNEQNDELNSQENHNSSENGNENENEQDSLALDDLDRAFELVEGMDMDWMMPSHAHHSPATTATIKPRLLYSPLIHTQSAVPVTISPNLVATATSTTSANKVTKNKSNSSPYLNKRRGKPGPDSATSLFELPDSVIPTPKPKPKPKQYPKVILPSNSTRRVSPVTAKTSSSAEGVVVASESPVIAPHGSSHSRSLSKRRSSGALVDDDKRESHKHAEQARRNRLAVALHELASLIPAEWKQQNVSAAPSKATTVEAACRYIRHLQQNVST
With AGGGTCACGTGTGCGT the “relative binding free energy” value was 0.08 kcal/mol. GTGTGCACGTGGAATG was tested, and the “relative binding free energy” value was 0.11 kcal/mol. In the case of GGTGGCACGTGGCACT, the “relative binding free energy” value is reported as -0.16 kcal/mol. In the case of GGAAACACGTGGGCGT, the “relative binding free energy” value is reported as -0.02 kcal/mol. In the case of TTGGGCACGTGGTAGC, the “relative binding free energy” value is reported as -0.14 kcal/mol. TGGTGCACGTGCCTTT was tested, and the “relative binding free energy” value was -0.13 kcal/mol. For GTGTTCACGTGGTCCG, the “relative binding free energy” value was 0.19 kcal/mol. In the case of CGGCTCACGTGGAGGT, the “relative binding free energy” value is reported as 0.18 kcal/mol. In the case of GTTCGCACGTGTTTGA, the “relative binding free energy” value is reported as 0.04 kcal/mol. With ATTGACACGTGAGTAT the “relative binding free energy” value was 0.18 kcal/mol. CTTGTCACGTGCGGTG was tested, and the “relative binding free energy” value was 0.05 kcal/mol. GGGTCCACGTGAGGAT was tested, and the “relative binding free energy” value was 0.28 kcal/mol. For ATATGCACGTGGCGGA, the “relative binding free energy” value was -0.04 kcal/mol. GGTAACACGTGTATGT was tested, and the “relative binding free energy” value was -0.04 kcal/mol. ATTCTCACGTGATGTT was tested, and the “relative binding free energy” value was 0.24 kcal/mol. In the case of CGGGCCACGTGGGGAG, the “relative binding free energy” value is reported as -0.16 kcal/mol. In the case of TAAAACACGTGTGAGT, the “relative binding free energy” value is reported as 0.08 kcal/mol. With TGGGTCACGTGATAGC the “relative binding free energy” value was 0.15 kcal/mol. In the case of TTTCTCACGTGGGGGG, the “relative binding free energy” value is reported as 0.19 kcal/mol. For GTGGACACGTGGAGTC, the “relative binding free energy” value was 0.09 kcal/mol. For GAATGCACGTGTCTGG, the “relative binding free energy” value was 0.01 kcal/mol. In the case of GATCACACGTGGGGAG, the “relative binding free energy” value is reported as 0.12 kcal/mol. AGGCTCACGTGTATGG was tested, and the “relative binding free energy” value was 0.23 kcal/mol. For GTTTTCACGTGAGACG, the “relative binding free energy” value was 0.5 kcal/mol. TATGGCACGTGTTAGT was tested, and the “relative binding free energy” value was -0.08 kcal/mol. For TGGAACACGTGCTTGA, the “relative binding free energy” value was 0.11 kcal/mol. For GGATTCACGTGTCTTG, the “relative binding free energy” value was 0.26 kcal/mol. For GGAGTCACGTGGTGCA, the “relative binding free energy” value was 0.08 kcal/mol. For ATAGCCACGTGGGGGC, the “relative binding free energy” value was -0.28 kcal/mol. For AAGGCCACGTGGGTTG, the “relative binding free energy” value was -0.14 kcal/mol. In the case of GAAGACACGTGGCGGT, the “relative binding free energy” value is reported as 0.02 kcal/mol. In the case of CGGAGCACGTGGGGGA, the “relative binding free energy” value is reported as -0.36 kcal/mol. GCTTTCACGTGGTGCG was tested, and the “relative binding free energy” value was 0.21 kcal/mol. In the case of TGGGACACGTGAGTCG, the “relative binding free energy” value is reported as 0.36 kcal/mol. With CGGTGCACGTGTTAGG the “relative binding free energy” value was -0.02 kcal/mol. With CGGGTCACGTGGTTAA the “relative binding free energy” value was 0.08 kcal/mol. For TAAGGCACGTGAGTCG, the “relative binding free energy” value was 0.08 kcal/mol. In the case of GAATTCACGTGTGTGA, the “relative binding free energy” value is reported as 0.29 kcal/mol. With GTCTGCACGTGTAGTT the “relative binding free energy” value was 0.08 kcal/mol. For TGGGGCACGTGGCAGG, the “relative binding free energy” value was -0.19 kcal/mol. With TGGTGCACGTGGTCTG the “relative binding free energy” value was -0.13 kcal/mol. For TCTGGCACGTGGGAGT, the “relative binding free energy” value was -0.03 kcal/mol. In the case of TTAGACACGTGGCGTA, the “relative binding free energy” value is reported as -0.09 kcal/mol. With GGTGTCACGTGTCAGG the “relative binding free energy” value was 0.12 kcal/mol. In the case of ATTTTCACGTGGTGCG, the “relative binding free energy” value is reported as 0.19 kcal/mol. With TCAAGCACGTGGGGAT the “relative binding free energy” value was -0.08 kcal/mol. For AAAGTCACGTGTTAGA, the “relative binding free energy” value was 0.21 kcal/mol. AATGACACGTGAAGGG was tested, and the “relative binding free energy” value was 0.28 kcal/mol. For TGGGGCACGTGGGAAG, the “relative binding free energy” value was -0.15 kcal/mol. For AAAGACACGTGTTATG, the “relative binding free energy” value was 0.19 kcal/mol. In the case of TTGGGCACGTGATATC, the “relative binding free energy” value is reported as -0.08 kcal/mol. TGATGCACGTGCGGGT was tested, and the “relative binding free energy” value was -0.04 kcal/mol. With TTGGTCACGTGTCGTC the “relative binding free energy” value was -0.01 kcal/mol. AGCTGCACGTGTGAAG was tested, and the “relative binding free energy” value was 0.01 kcal/mol. In the case of GTTTGCACGTGGGGGC, the “relative binding free energy” value is reported as -0.03 kcal/mol. In the case of GGTTACACGTGGAAAG, the “relative binding free energy” value is reported as 0.32 kcal/mol. CGAAGCACGTGTTTAG was tested, and the “relative binding free energy” value was 0.1 kcal/mol. For AATGTCACGTGCAGGG, the “relative binding free energy” value was 0 kcal/mol. In the case of AAGTGCACGTGAAGTG, the “relative binding free energy” value is reported as 0.12 kcal/mol. With AAGTTCACGTGTTCTT the “relative binding free energy” value was 0.16 kcal/mol. With AGGTACACGTGGGGTA the “relative binding free energy” value was -0.14 kcal/mol. With TGTGTCACGTGCTGGA the “relative binding free energy” value was 0.05 kcal/mol. With AGGAGCACGTGTTTTG the “relative binding free energy” value was -0.06 kcal/mol.
